Measurements reported in the RNAGym collection of RNA variant scans (doi:10.1093/nar/gkz1192).
The source gives no read counts; variants with many changes may rest on few reads.

B1: CPEB3 Ribozyme (parent)
chain: UAACAGGGGGCCACAGCAGAAGCGUUCACGUCGCAGCCCCUGUCAGAUUCUGGUGAAUCUGCGAAUUCUGCUGUAUAUCUC

Variants of: B1
Assay: self-cleavage, relative activity (ratio to wild type); higher = more cleavage; in vitro, sequencing
Summary of the method: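 CPEB3 self-cleaving ribozyme mutant libraries were made by rounds of error-prone PCR, barcoded, and transcribed in vitro with T7 RNA polymerase for 5 hours at 37°C. Cleavage occurred during transcription and a 15 min DNase I step before EDTA stop. RNAs were reverse transcribed with template switching and Illumina-sequenced, with DNA sequencing mapping barcodes to variants. Relative activity is the variant's cleaved/total read fraction divided by wild type's (minimum 5 reads), averaged across three batches.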
In the case of A18G C37A A45U, the self-cleavage is reported as 0.22. For A18G C37A A56G C62A A65G U67C U69A, the self-cleavage was 0.05. For A18G C37A U51A A65G U67C, the self-cleavage was 0.05. Work on A18G C37U U66C yielded a self-cleavage of 0.16. In the case of A18G C37U U67C, the self-cleavage is reported as 0.3. A18G C38A U76A A77U showed a self-cleavage of 0.08. With A18G C39A A47U the self-cleavage was 0.05. Work on A18G C39A U43C A45G U58C yielded a self-cleavage of 0.14. A18G C39A U69A gave a self-cleavage of 0.17. A18G C40U G63U U80A gave a self-cleavage of 0.47. With A18G C59A U72C the self-cleavage was 0.08. With A18G C62U U69C the self-cleavage was 0.13. Variant A18G G19A G22A U72A has a self-cleavage of 0.18. Work on A18G G19C A28U G30A U67C U76C yielded a self-cleavage of 0.05. Work on A18G G19U C23A U43C U69A yielded a self-cleavage of 0.11. With A18G G19U G36C U54C U66C U78C the self-cleavage was 0.1. For A18G G22U A28G U66C, the self-cleavage was 0.1. For A18G G22U U41A, the self-cleavage was 0.19. Variant A18G G24A A35G has a self-cleavage of 0.21. A18G G24A C81U showed a self-cleavage of 0.31. In the case of A18G G24A U25C A45G U60C U72C, the self-cleavage is reported as 0.17. With A18G G24A U51A the self-cleavage was 0.22. In the case of A18G G24A U58C, the self-cleavage is reported as 0.11. A18G G24U A45U showed a self-cleavage of 0.43. A18G G24U C32U A47G A64U gave a self-cleavage of 0.05. Variant A18G G30A A56U has a self-cleavage of 0.26. A18G G33C A56G U76C gave a self-cleavage of 0.06. In the case of A18G G33C U58C, the self-cleavage is reported as 0.12. Variant A18G G33U G55C U69G has a self-cleavage of 0.08. For A18G G42C A57G A65G, the self-cleavage was 0.17. Variant A18G G46A A65G has a self-cleavage of 0.09. For A18G G52U A65G, the self-cleavage was 0.22. Work on A18G G52U U54C U69A yielded a self-cleavage of 0.54. A18G G52U U60A C68U G73C A75G gave a self-cleavage of 0.28. For A18G G55A U72G U80A, the self-cleavage was 0.59. Work on A18G G63U C68A U69C yielded a self-cleavage of 0.4. In the case of A18G U25A A57U U80C, the self-cleavage is reported as 0.23. A18G U25A U31C U43C U51A U54C U60C showed a self-cleavage of 0.17. In the case of A18G U25C A45G A47G U60A U74C, the self-cleavage is reported as 0.2. A18G U25C A65G U72C gave a self-cleavage of 0.35. Work on A18G U25C U26A A57G U69C yielded a self-cleavage of 0.09. With A18G U25C U26C C34A A57G the self-cleavage was 0.11. A18G U25C U31C U66C C71U A77G gave a self-cleavage of 0.16. In the case of A18G U25C U41A, the self-cleavage is reported as 0.23. A18G U25C U41A A65G gave a self-cleavage of 0.44. A18G U25C U43A A45G U54A U67G U72C gave a self-cleavage of 0.04. Work on A18G U25C U43A A47G U67C yielded a self-cleavage of 0.1. A18G U25C U43C A56G U78C U80A gave a self-cleavage of 0.15. With A18G U25C U78G the self-cleavage was 0.07. A18G U26A A28U A35U A45C U67A showed a self-cleavage of 0.05. Variant A18G U26A A57G has a self-cleavage of 0.42. Work on A18G U26A C34G A35U yielded a self-cleavage of 0.05. With A18G U26A U58A U69G U78C the self-cleavage was 0.12. In the case of A18G U26A U58C U60C U67A U72A, the self-cleavage is reported as 0.1. Work on A18G U26C A28G G33C A35G yielded a self-cleavage of 0.06. A18G U26C A28U U31C U58C U80C showed a self-cleavage of 0.03. Variant A18G U26C A35G U41C U49A G63A C68A has a self-cleavage of 0.15. With A18G U26C A35G U72A U78C the self-cleavage was 0.26. With A18G U26C A35U U41A U54C U72A U78C the self-cleavage was 0.06. Work on A18G U26C A35U U41C U49A U58A yielded a self-cleavage of 0.2. For A18G U26C A56G, the self-cleavage was 0.16. Work on A18G U26C C29A C40A yielded a self-cleavage of 0.33. A18G U26C G33C A64G showed a self-cleavage of 0.09. Work on A18G U26C U31A A64U U78C yielded a self-cleavage of 0.06. In the case of A18G U26C U41A G42A, the self-cleavage is reported as 0.29. A18G U26C U41C A45G U54A U72C showed a self-cleavage of 0.07. A18G U26C U43A showed a self-cleavage of 0.45. With A18G U26C U51C A57G C68A the self-cleavage was 0.06. With A18G U26G A35U the self-cleavage was 0.27. In the case of A18G U26G U31C U54C U80C, the self-cleavage is reported as 0.45. In the case of A18G U26G U69C, the self-cleavage is reported as 0.24. Variant A18G U31A A35U A45U A47G U66C has a self-cleavage of 0.09. In the case of A18G U31C A47G U49G U72C U78C, the self-cleavage is reported as 0.25. With A18G U31C A57G U58C U72A the self-cleavage was 0.09. Variant A18G U31C U51A A65G A77G has a self-cleavage of 0.15. A18G U31G U43C U66C U80G gave a self-cleavage of 0.08. A18G U41A U48A gave a self-cleavage of 0.22. A18G U41A U48G U49A G61A gave a self-cleavage of 0.12. Variant A18G U41A U49C has a self-cleavage of 0.09. A18G U41A U54G G63U U67A showed a self-cleavage of 0.06. For A18G U41A U60C G63A, the self-cleavage was 0.06. A18G U41A U76C gave a self-cleavage of 0.25. In the case of A18G U41C G42C A45U A64G, the self-cleavage is reported as 0.24. Work on A18G U41C U43A A57G U72A yielded a self-cleavage of 0.14. For A18G U41C U49C G63U A65C U78C, the self-cleavage was 0.08. A18G U41C U58C A64G A75G U80G gave a self-cleavage of 0.12. With A18G U41C U58C A64G U74A A75G the self-cleavage was 0.23. For A18G U41G G55A A64G U74A, the self-cleavage was 0.08. A18G U41G U48C showed a self-cleavage of 0.15. Work on A18G U43A A47G U58C C62A yielded a self-cleavage of 0.18. In the case of A18G U43C A45C A64U U78C, the self-cleavage is reported as 0.04. A18G U43C A47G A64G gave a self-cleavage of 0.16. In the case of A18G U43C A47G C59U U67A, the self-cleavage is reported as 0.13. In the case of A18G U43C A64G U69C, the self-cleavage is reported as 0.81. Work on A18G U43C A77G yielded a self-cleavage of 0.44. Work on A18G U43C U58C G63A yielded a self-cleavage of 0.06. For A18G U43C U69C U78A U80C, the self-cleavage was 0.56. Variant A18G U43C U72C has a self-cleavage of 0.21. Variant A18G U48A U54C A75G has a self-cleavage of 0.09. Work on A18G U48C G61C U76A A77G yielded a self-cleavage of 0.1. In the case of A18G U49A U54C, the self-cleavage is reported as 0.24. A18G U49C A65C gave a self-cleavage of 0.1. A18G U49C C62U U69C showed a self-cleavage of 0.38. A18G U49C U60C U72A showed a self-cleavage of 0.15. For A18G U51A U54C U69A U80A, the self-cleavage was 0.77. In the case of A18G U51A U67A, the self-cleavage is reported as 0.4. A18G U51A U74A showed a self-cleavage of 1.02. For A18G U51A U78C, the self-cleavage was 0.59. A18G U51C U54C showed a self-cleavage of 0.17. A18G U51C U58C U67A showed a self-cleavage of 0.14. With A18G U51G G52C the self-cleavage was 0.57. A18G U54A A56G U66C U69G U74A gave a self-cleavage of 0.32. Work on A18G U54A A56U yielded a self-cleavage of 0.46. A18G U54A A57G gave a self-cleavage of 0.41. In the case of A18G U54C A64G U80C, the self-cleavage is reported as 0.44. In the case of A18G U54C U66C, the self-cleavage is reported as 0.15. A18G U54C U78C showed a self-cleavage of 0.73. For A18G U58C A64G, the self-cleavage was 0.33. For A18G U58C U69A, the self-cleavage was 0.4. Variant A18G U60C A64G U67C A77U has a self-cleavage of 0.32. A18G U69A U80C showed a self-cleavage of 0.47. In the case of A18U A20C G33A U69A U78C, the self-cleavage is reported as 0.11. With A18U A20G A35G U41C U51A U54C the self-cleavage was 0.49. A18U A20G A45U gave a self-cleavage of 0.15. A18U A20G A56G A64U U80A showed a self-cleavage of 0.1. In the case of A18U A20G A56G G70A A77G, the self-cleavage is reported as 0.12. With A18U A20G A56U the self-cleavage was 0.22. In the case of A18U A20G G24A U66C, the self-cleavage is reported as 0.21. Work on A18U A20G G33A A45C yielded a self-cleavage of 0.07. A18U A20G U25C gave a self-cleavage of 0.06. A18U A20G U26A A28U A64G U69C showed a self-cleavage of 0.06. A18U A20G U31C C32U U67C U72C gave a self-cleavage of 0.1. For A18U A20G U43A G63A, the self-cleavage was 0.26. Variant A18U A20G U48C A57G U72C U78C has a self-cleavage of 0.08. A18U A20G U69C showed a self-cleavage of 0.23. A18U A20U A35U G63A gave a self-cleavage of 0.1. A18U A20U A56U U58C U67G U78C gave a self-cleavage of 0.07. A18U A20U A65G U69A U72G U74A gave a self-cleavage of 0.07. Variant A18U A20U C62A has a self-cleavage of 0.14. A18U A20U U26C A35G U60C C81A gave a self-cleavage of 0.04. Work on A18U A20U U31A U60C U66C U69G U76C yielded a self-cleavage of 0.08. With A18U A21G A35G the self-cleavage was 0.52. For A18U A21G A56U, the self-cleavage was 0.11. A18U A21G C37A A45G G55U U60C gave a self-cleavage of 0.2. With A18U A21G G52A U72C the self-cleavage was 0.51. For A18U A21G U25C A45G U49A U60C, the self-cleavage was 0.06. A18U A21G U25C A64G A65U gave a self-cleavage of 0.05. In the case of A18U A21G U26C U41C C50G U69G, the self-cleavage is reported as 0.02. Variant A18U A21G U41C A64C has a self-cleavage of 0.08. For A18U A21G U54C U74C, the self-cleavage was 0.05. In the case of A18U A28C U31A U78C, the self-cleavage is reported as 0.04. Work on A18U A28C U43A G63U A77G yielded a self-cleavage of 0.13. A18U A28G A35G A65G U80C gave a self-cleavage of 0.24. A18U A28G A35U showed a self-cleavage of 0.11. For A18U A28G A45C, the self-cleavage was 0.15. Work on A18U A28G A45G U67A yielded a self-cleavage of 0.26. For A18U A28G A47G, the self-cleavage was 0.39. With A18U A28G C38A A57G A65G the self-cleavage was 0.03. Variant A18U A28G C39U has a self-cleavage of 0.66. With A18U A28G U31A U66C U72C the self-cleavage was 0.06. Variant A18U A28G U41C A64U G70U U74C has a self-cleavage of 0.07. A18U A28G U58A U80A showed a self-cleavage of 0.07. For A18U A28G U66C A75G U76C, the self-cleavage was 0.11. Variant A18U A28U A35G A45G has a self-cleavage of 0.7. With A18U A28U A77U the self-cleavage was 0.32. A18U A28U U48C U51G showed a self-cleavage of 0.18. Variant A18U A35G C37A has a self-cleavage of 0.38.
